Test results taken from PMC10341166.
Results are given in words; binding and its absence hold for the method and conditions named. Binding seen in cells or lysates may run through a third protein. Some results given as binding are weak or reduced against the parent protein; the word gives no strength. Where a sequence is shown, tags or fusion partners need not be part of it.

Protein sequences, listed by entry. Tags and fused reporters are not part of them.
UniProt P16277: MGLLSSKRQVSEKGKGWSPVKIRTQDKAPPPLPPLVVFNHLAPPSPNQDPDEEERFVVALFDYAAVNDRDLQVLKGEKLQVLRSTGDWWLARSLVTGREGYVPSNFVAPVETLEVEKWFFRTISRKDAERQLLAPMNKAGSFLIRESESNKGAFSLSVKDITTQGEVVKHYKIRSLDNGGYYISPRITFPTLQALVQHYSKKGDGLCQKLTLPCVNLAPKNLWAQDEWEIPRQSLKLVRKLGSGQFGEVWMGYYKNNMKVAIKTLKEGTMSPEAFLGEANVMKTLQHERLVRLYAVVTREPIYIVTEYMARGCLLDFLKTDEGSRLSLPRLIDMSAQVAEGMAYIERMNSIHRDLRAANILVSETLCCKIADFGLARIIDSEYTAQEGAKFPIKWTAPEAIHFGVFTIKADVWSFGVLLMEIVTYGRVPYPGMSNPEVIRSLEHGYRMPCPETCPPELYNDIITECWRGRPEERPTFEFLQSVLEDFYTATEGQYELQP
UniProt P08103: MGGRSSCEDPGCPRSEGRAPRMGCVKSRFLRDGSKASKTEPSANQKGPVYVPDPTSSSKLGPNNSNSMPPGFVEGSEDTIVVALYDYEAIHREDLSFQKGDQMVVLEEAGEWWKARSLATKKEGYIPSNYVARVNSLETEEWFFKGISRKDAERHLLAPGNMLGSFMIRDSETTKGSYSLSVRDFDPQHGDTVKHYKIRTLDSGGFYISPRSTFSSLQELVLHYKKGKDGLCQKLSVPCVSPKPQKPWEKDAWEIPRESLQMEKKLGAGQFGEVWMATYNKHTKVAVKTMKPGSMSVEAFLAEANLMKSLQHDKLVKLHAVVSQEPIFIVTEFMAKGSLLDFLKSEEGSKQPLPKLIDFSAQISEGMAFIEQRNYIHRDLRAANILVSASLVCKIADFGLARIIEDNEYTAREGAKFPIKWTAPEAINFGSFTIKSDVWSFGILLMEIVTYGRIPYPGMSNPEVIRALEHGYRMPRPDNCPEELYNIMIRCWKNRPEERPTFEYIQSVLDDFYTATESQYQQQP

How the values were obtained:
Experiment in all cases: co-IP; F9 L32T2 cells transiently co-transfected with HA-Cldn6 constructs and SFK-FLAG vectors; whole cell extracts, Immunoprecipitation Kit Protein G; mouse IgG as negative control; immunoblot
[1] = target: T1, HA-Cldn6ΔC (mouse CLDN6, AA 1-183) (mouse) (UniProt Q9Z262)
T1 sequence: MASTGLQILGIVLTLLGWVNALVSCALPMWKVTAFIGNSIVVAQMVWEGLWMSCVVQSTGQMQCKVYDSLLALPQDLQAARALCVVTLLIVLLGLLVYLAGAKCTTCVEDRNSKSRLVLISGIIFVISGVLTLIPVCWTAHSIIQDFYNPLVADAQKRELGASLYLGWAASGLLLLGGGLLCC

[2] = target: T2, HA-Cldn6 (mouse CLDN6, full length, AA 1-219) (mouse) (UniProt Q9Z262)
T2 sequence: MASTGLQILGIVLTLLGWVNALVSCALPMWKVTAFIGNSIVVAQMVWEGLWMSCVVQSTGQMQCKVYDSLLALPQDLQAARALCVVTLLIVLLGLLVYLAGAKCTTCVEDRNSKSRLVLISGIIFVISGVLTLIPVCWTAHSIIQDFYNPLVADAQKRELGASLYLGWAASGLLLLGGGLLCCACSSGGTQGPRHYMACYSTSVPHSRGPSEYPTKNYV

[3] = target: T3, HA-Cldn6Δ1/2C (mouse CLDN6, AA 1-201) (mouse) (UniProt Q9Z262)
T3 sequence: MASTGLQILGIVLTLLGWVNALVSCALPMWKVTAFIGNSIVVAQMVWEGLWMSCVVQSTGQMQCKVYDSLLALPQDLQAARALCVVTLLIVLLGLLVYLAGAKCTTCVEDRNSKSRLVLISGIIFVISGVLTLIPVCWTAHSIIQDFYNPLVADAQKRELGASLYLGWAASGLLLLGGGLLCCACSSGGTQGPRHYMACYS

| Substance | binding [1] | binding [2] | binding [3] |
| --- | --- | --- | --- |
| Blk-FLAG (mouse BLK) (from UniProt P16277 1-499) (enzyme) | no binding | binds | binds |
| Hck-FLAG (mouse HCK) (from UniProt P08103 1-524) (enzyme) | – | no binding | – |
| Fgr-FLAG (mouse FGR) (from UniProt P14234 1-517) (enzyme) | – | no binding | – |
